{
  "source": "PubChem BioAssay AID1345082",
  "about": "(National Center for Advancing Translational Sciences (NCATS), 2018)",
  "note": "The whole screen tested about 94,000 compounds, of which about 4,000 (4.3%) were called active. The inconclusive results got no clear call from the source; some entries with a clear call stand among them for comparison. The call rests on the fitted dose curve; in most records, active means well fitted inhibition curve with a large enough effect; inconclusive means small, poorly fitted or top-dose-only effect; inactive means no such curve, though single readings can be large or run the other way. A potency beside an inconclusive call is a rough fit, not a confirmed value. On the % scale 0 is the no-effect control and ±100 the full control effect; potency means the concentration at half of the fitted maximal effect; tags describe the fitted curve by direction and shape.",
  "data": [
    {"experiment": "Cytotoxic Profiling in NIH 3T3 Cell Line of Diverse Libraries Using Quantitative High-Throughput Screening; further: nearly all actives have a fitted effect of over 55% in size", "conditions": "NIH 3T3 viability, CellTiter-Glo ATP luminescence, 48-72 h; activity change, negative = cytotoxicity: at 96.7 µM (top of the series) unless noted; series mostly up to 96.7 µM", "summary_of_the_method": "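Luminescent ATP readout (CellTiter-Glo, 10 min RT) after 48 or 72 hr compound exposure of NIH 3T3 cells seeded at 400 cells/well in 1536-well format; quantitative HTS.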", "values": [
      {"smiles": "N#Cc1cccnc1-c1ccc(C(=O)N2CCC(NC(=O)Cc3ccccn3)CC2)cc1", "activity change, negative = cytotoxicity": "inactive: -27%"},
      {"smiles": "Cc1ccc(C2Cn3nnc(C(=O)N4CCC(C(=O)NC5CCCCC5)CC4)c3CO2)cc1", "note": "(stereo unspecified)", "outcome": "inactive"},
      {"smiles": "COc1ccc(C(=O)NC2CCN(c3cnn(CC4CC4)c(=O)c3)CC2)c(OC)n1", "Potency": "inconclusive: 44.7 µM [inhibitor, partial curve, poor fit]"},
      {"smiles": "Cn1ncc2c(C(=O)N3CCOCC3)cc(-c3ccc(Cl)cc3)nc21", "activity change, negative = cytotoxicity": "inactive: -13.9%"},
      {"smiles": "CCN(CC)C(=O)CCc1c(C)nn(-c2ccc(F)cc2)c1Oc1ccccc1OC", "Potency": "inconclusive: 50.1 µM [inhibitor, partial curve, poor fit]"},
      {"smiles": "Cc1nn2c(c1-c1ccccc1Oc1ccccc1)N(C(=O)Cc1ccccc1)CCC2", "Potency": "inconclusive: 56.2 µM [inhibitor, partial curve, poor fit]"},
      {"smiles": "Cc1ccc(CN2C(=O)NC3(CCN(C(=O)c4ccc(C#N)cc4)CC3)C2=O)cc1", "Potency": "inconclusive: 70.8 µM [inhibitor, single point]"},
      {"smiles": "O=C(NCc1ccc(Cl)cc1)c1cccn2nccc12", "Potency": "inconclusive: 89.1 µM [inhibitor, partial curve, poor fit]"},
      {"smiles": "CCCN1CCCCC12Cc1ccccc1CN([S+](C)(=O)[O-])C2", "note": "(stereo unspecified)", "Potency": "inconclusive: 89.1 µM [inhibitor, single point]"},
      {"smiles": "O=C(NCc1cccc(F)c1)c1cc2c(s1)CCN(C(=O)c1ccccc1)C2", "Potency": "inconclusive: 50.1 µM [inhibitor, partial curve, poor fit]"},
      {"smiles": "O=C(NCc1c[nH]c2ncccc12)c1ccc2ccccc2n1", "Potency": "inconclusive: 70.8 µM [inhibitor, partial curve]"},
      {"smiles": "Cc1cc(F)ccc1OC1CN(C(=O)c2ccccc2)C1", "Potency": "inconclusive: 70.8 µM [inhibitor, partial curve, poor fit]"},
      {"smiles": "CN1CCN(Cc2nc(C3(O)CCN(CC4CC4)CC3)cs2)CC1", "Potency": "inconclusive: 112 µM [inhibitor, partial curve]"},
      {"smiles": "CN(C)c1cccc(Oc2nnnn2[C@H]2CO[C@H]3[C@@H]2OC[C@@H]3NC(=O)Nc2cccc3ccccc23)c1", "activity change, negative = cytotoxicity": "inactive: -25.6%"},
      {"smiles": "CN(C)C(=O)[C@@H]1CN(S(=O)(=O)c2ccccc2)C[C@H]1CO", "activity change, negative = cytotoxicity": "inactive: -23.3%"},
      {"smiles": "O=C(c1ccc(Cl)cc1)N1CCNc2cnc(Nc3ccccc3)nc2C1", "Potency": "inconclusive: 50.1 µM [inhibitor, partial curve, poor fit]"},
      {"smiles": "COc1ccc(N2CCN(C(=O)CCc3ccnc(N4CCOCC4)c3)CC2)cc1", "activity change, negative = cytotoxicity": "inactive: -17.7%"},
      {"smiles": "O=C([C@H]1CCCN1C(=O)Cc1ccccn1)N1CCC(N2CCOC2=O)CC1", "activity change, negative = cytotoxicity": "inactive: -27.4%"},
      {"smiles": "COc1ccccc1OCC(=O)NCC1CCCN(Cc2ccc(C3CCCC3)s2)C1", "note": "(stereo unspecified)", "Potency": "inconclusive: 79.4 µM [inhibitor, partial curve]"},
      {"smiles": "Cc1ccc(OCc2nc(C3CN(C(=O)c4ccc5nc[nH]c5c4)C3)no2)cc1", "Potency": "inconclusive: 50.1 µM [inhibitor, partial curve, poor fit]"},
      {"smiles": "Cc1nc2c(c(-c3ccc(O)cc3)n1)CN(Cc1ccc(N(C)C)cc1)CCC2", "Potency": "inconclusive: 56.2 µM [inhibitor, partial curve, poor fit]"},
      {"smiles": "COCC(=O)N[C@H]1C[C@@H](c2nc(-c3ccc(OC(F)(F)F)cc3)no2)N(C)C1", "Potency": "inconclusive: 100 µM [inhibitor, single point]"},
      {"smiles": "Cc1ccc(S(=O)(=O)N2CCCC(Cn3c(C)nc4cccnc43)C2)cc1F", "note": "(stereo unspecified)", "Potency": "inconclusive: 35.5 µM [inhibitor, partial curve]"},
      {"smiles": "O=C(N[C@@H]1CN(Cc2cc(F)c(F)c(F)c2)C[C@H]1CO)C1CC1", "Potency": "inconclusive: 79.4 µM [inhibitor, single point]"},
      {"smiles": "O=[S+]([O-])(NC1CCCN(c2ccnc3ccnn23)C1)c1ccccc1", "note": "(stereo unspecified)", "Potency": "inconclusive: 44.7 µM [inhibitor, partial curve, poor fit]"},
      {"smiles": "COc1ccc(NC(=O)N[C@H]2CO[C@H]3[C@@H]2OC[C@@H]3n2nnnc2Oc2ccccc2)cc1", "Potency": "inconclusive: 70.8 µM [inhibitor, partial curve, poor fit]"},
      {"smiles": "CCn1ccc(C(=O)N2CCN(c3cc(-c4ccc(Cl)cc4)[nH]n3)CC2)n1", "Potency": "inconclusive: 35.5 µM [inhibitor, partial curve, poor fit]"},
      {"smiles": "Cc1nn2c(c1-c1ccccc1OCc1ccccc1)N(C(=O)Cc1ccccn1)CCC2", "Potency": "inconclusive: 89.1 µM [inhibitor, partial curve, poor fit]"},
      {"smiles": "COc1ccccc1C(=O)NC1CCN(c2cc(-c3ccccc3)[nH]n2)C1", "note": "(stereo unspecified)", "activity change, negative = cytotoxicity": "inactive: 2%"},
      {"smiles": "COc1cc2c(cc1OC)CN(c1cc(C3CC(O)C3)ncn1)CC2", "note": "(stereo unspecified)", "Potency": "inconclusive: 39.8 µM [inhibitor, partial curve]"},
      {"smiles": "CNC(=O)[C@H]1C[C@]2(CCCCN(CCO)C2=O)N(C(=O)Cc2ccc(F)cc2)[C@H]1c1ccco1", "Potency": "inconclusive: 50.1 µM [inhibitor, single point]"},
      {"smiles": "CCc1nc2c(c(-c3ccc(O)cc3)n1)CCN(Cc1cccc(OC)c1)CC2", "Potency": "inconclusive: 50.1 µM [inhibitor, partial curve, poor fit]"},
      {"smiles": "CC(C)CCN1CC[C@@H]2OCC(=O)N(Cc3c[nH]c4ccccc34)[C@H]2CC1", "Potency": "inconclusive: 89.1 µM [inhibitor, partial curve]"},
      {"smiles": "CC(C)Oc1ccc(CN2CCc3nc(N(C)C)[nH]c(=O)c3CC2)cc1", "outcome": "inactive"},
      {"smiles": "Cc1ccc(NC(=O)c2ccc3c(c2)N(C)C2CCCCCN2C3=O)c(F)c1", "note": "(stereo unspecified)", "Potency": "inconclusive: 70.8 µM [inhibitor, single point]"},
      {"smiles": "O=C(NCc1cccs1)c1cc(-c2cccs2)c2cccn2n1", "Potency": "inconclusive: 35.5 µM [inhibitor, partial curve]"},
      {"smiles": "COCCNC(=O)[C@H]1C[C@H](Oc2cccnc2)CN1S(=O)(=O)c1ccccc1C", "activity change, negative = cytotoxicity": "inactive: -2.03%"},
      {"smiles": "Cc1ccc(-n2cccc2CC(=O)N2CCCC(C)C2)cc1", "note": "(stereo unspecified)", "Potency": "inconclusive: 70.8 µM [inhibitor, single point]"},
      {"smiles": "Cn1nc(-c2nncn2Cc2ccccc2)c2c1CCN(C(=O)c1[nH]nc3c1COc1ccccc1-3)C2", "activity change, negative = cytotoxicity": "inactive: -24.3%"},
      {"smiles": "CN(C)C(=O)c1cccnc1OC1CCN(C(=O)c2ccc(OC(F)(F)F)cc2)C1", "note": "(stereo unspecified)", "Potency": "inconclusive: 50.1 µM [inhibitor, partial curve, poor fit]"},
      {"smiles": "COc1ccc2c(c1)nc1n2[C@@H](CN(Cc2nccs2)Cc2nccs2)COC1", "Potency": "inconclusive: 126 µM [inhibitor, single point]"},
      {"smiles": "Cc1ccc(-c2noc(CCCC(=O)N3CCC(c4nc(C(=O)N5CCCC5)c(C)o4)CC3)n2)cc1", "Potency": "inconclusive: 44.7 µM [inhibitor, partial curve, poor fit]"},
      {"smiles": "COc1ccc(CN2CCc3nc(C)nc(-c4ccc(OC)cc4)c3CC2)cc1", "Potency": "inconclusive: 56.2 µM [inhibitor, single point]"},
      {"smiles": "CCCNC(=O)Cc1ccc(N(Cc2ccc(F)cc2)C(=O)c2ccco2)cc1", "Potency": "inconclusive: 50.1 µM [inhibitor, partial curve, poor fit]"},
      {"smiles": "COc1cccc(CN2CCC[C@@H](O)[C@H](NC(=O)c3ccc(OCc4ccccc4)cc3)C2)c1", "Potency": "active: 35.5 µM"},
      {"smiles": "COc1ccc(Cn2c3c(c(=O)n2Cc2ccccc2)CCN(C(=O)c2nc4ccccc4[nH]2)C3)cc1", "Potency": "active: 20 µM"},
      {"smiles": "O=C1NCCCCCN(C(=O)COc2ccccc2)[C@@H]2C[C@@H](C(=O)N3CCc4ccccc4C3)C[C@H]12", "activity change, negative = cytotoxicity": "inactive: -22.4%"},
      {"smiles": "COc1cccc(Nc2ncc3c(n2)C(C)(C(=O)Nc2nc(C)cs2)CC3)c1", "note": "(stereo unspecified)", "Potency": "inconclusive: 39.8 µM [inhibitor, full curve]"},
      {"smiles": "O=C(N[C@H]1[C@H](O)[C@H](O)C[C@@H]1c1cccnc1)C1CCC1", "activity change, negative = cytotoxicity": "inactive: 1.26% [at 230 µM]"},
      {"smiles": "CCC1=C(C(=O)OC)C(c2ccccc2F)N2C(CC(=O)N3CCC(C)CC3)=CSC2=N1", "note": "(stereo unspecified)", "Potency": "inconclusive: 44.7 µM [inhibitor, partial curve, poor fit]"},
      {"smiles": "O=C(CS(=O)(=O)c1ccccc1)N[C@H]1CCN2C(=O)[C@H](Cc3ccc(F)cc3)NC(=O)[C@@H]2C1", "activity change, negative = cytotoxicity": "inactive: -16.4%"},
      {"smiles": "CCN1C(=O)COC[C@@H]1[C@H](O)c1ccc(NC(=O)c2ccnc(Cl)c2)cc1", "Potency": "inconclusive: 70.8 µM [inhibitor, partial curve]"},
      {"smiles": "O=C(Nc1ccc(Cl)cc1)c1nc2c(o1)CCN(Cc1ccc3c(c1)CCO3)CC2", "Potency": "inconclusive: 39.8 µM [inhibitor, partial curve]"},
      {"smiles": "COc1ccc(NC(=O)Cn2c(=O)n(-c3ccc(F)cc3)c(=O)c3c2cc(C)n3C)cc1", "Potency": "inconclusive: 70.8 µM [inhibitor, partial curve, poor fit]"},
      {"smiles": "CC(C)N1CC(C(=O)NCc2ccc(C(F)(F)F)cc2)NC1=O", "note": "(stereo unspecified)", "activity change, negative = cytotoxicity": "inactive: -20.3% [at 138 µM]"},
      {"smiles": "Cc1cc(C)n(-c2cccc(CN(C)C(=O)c3cn(Cc4ccc(Cl)cc4)nn3)c2)n1", "Potency": "inconclusive: 50.1 µM [inhibitor, partial curve, poor fit]"},
      {"smiles": "O=C1CC2(CCN(C(=O)C3CCCN(C(=O)Cc4cccc(Cl)c4)C3)CC2)Oc2ccccc2N1", "note": "(stereo unspecified)", "Potency": "inconclusive: 44.7 µM [inhibitor, partial curve, poor fit]"},
      {"smiles": "Cc1cc(-c2cccc(CCOc3cnc4c(ccn4CC(=O)O)c3)c2)ccn1", "Potency": "inconclusive: 89.1 µM [inhibitor, partial curve, poor fit]"},
      {"smiles": "COc1cccc(-c2ccc(CN3CCCC(NC(=O)Cc4ccc(F)cc4)C3)cc2)c1", "note": "(stereo unspecified)", "Potency": "inconclusive: 44.7 µM [inhibitor, partial curve, poor fit]"},
      {"smiles": "Cc1noc(C)c1S(=O)(=O)N1CCC2(CC1)CC(N1CCN(C)CC1)CCO2", "note": "(stereo unspecified)", "activity change, negative = cytotoxicity": "inactive: 5%"},
      {"smiles": "COc1ccc(C2Cn3cnc(C(=O)N4CCC(C(=O)NCc5cccnc5)CC4)c3CO2)cc1", "note": "(stereo unspecified)", "activity change, negative = cytotoxicity": "inactive: -20.7%"}
    ]}
  ]
}
